In the supplement of paper PMC12217912:
This is one part of the list. The full chains were built here from the parent and the listed change. Values near 0.05 are background.

B1: TEV protease; numbered along this chain (parent)
chain: MGESLFKGPRDYNPISSSICHLTNESDGHTTSLYGIGFGPFIITNKHLFRRNNGTLVVQSLHGVFKVKDTTTLQQHLVDGRDMIIIRMPKDFPPFPQKLKFREPQREERICLVTTNFQTKSMSSMVSDTSCTFPSGDGIFWKHWIQTKDGQCGSPLVSTRDGFIVGIHSASNFTNTNNYFTSVPKNFMELLTNQEAQQWVSGWRLNADSVLWGGHKVFMVKPEEPFQPVKEATQL

Variants of: B1
Assay: raw area under fraction-flipped curve 0-4 h after induction (AUC4h, not background-subtracted), DNA-recorder readout of cleavage of the substrate (dimensionless); higher = more cleavage of the substrate by the protease variant
Settings: temperature: 34 °C; time window: 0-4 h after rhamnose induction
Method: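 In vivo DNA recorder in E. coli TOP10(DE3) ΔrhaA at 34 °C. Each TEVp single-site mutant (parent TEVp 0) is paired with a single-site variant of the 7-mer TEVs (canonical ENLYFQ|S). The substrate sits between flexible linkers in a Bxb1-sfGFP-TEVs-SsrA fusion, so cleavage stabilises Bxb1 and speeds flipping of a recombination array, read by NGS. The value is the raw area under the fraction-flipped curve over 0-4 h after rhamnose induction (AUC4h), with ≥20 reads per time point. It is not background-subtracted; inactive controls average about 0.047.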
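Further: Bxb1 expression induced with 0.2% (w/v) L-rhamnose at OD600 near 0.5, cultures sampled hourly, flipped fraction per protease–substrate barcode pair counted by paired-end Illumina sequencing.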

| Variant | area with substrate ENLYFQC | area with substrate ENLYFQF | area with substrate ENLYFQG | area with substrate ENLYFQH | area with substrate ENLYFQI | area with substrate ENLYFQK | area with substrate ENLYFQL | area with substrate ENLYFQN | area with substrate ENLYFQP | area with substrate ENLYFQQ | area with substrate ENLYFQR | area with substrate ENLYFQS | area with substrate ENLYFQT | area with substrate ENLYFQV | area with substrate ENLYFQW | area with substrate ENLYFQY | area with substrate ENLYFQM | area with substrate ENLYFQD | area with substrate ENLYFQE |
| --- | --- | --- | --- | --- | --- | --- | --- | --- | --- | --- | --- | --- | --- | --- | --- | --- | --- | --- | --- |
| MGESLFKGPRDYNPISSSICHLTNESDGHTTSLYGIGFGPFIITNKHLFRRNNGTLVVQSLHGVFKVKDTTTLQQHLVDGRDMIIIRMPKDFPPFPQKLKFREPQREERICLVTTNFQTKSMSQMVSDTSCTFPSGDGIFWKHWIQTKDGQCGSPLVSTRDGFIVGIHSASNFTNTNNYFTSVPKNFMELLTNQEAQQWVSGWRLNADSVLWGGHKVFMVKPEEPFQPVKEATQL [S124Q] | 0.0797 | 0.0616 | 0.0972 | 0.0788 | 0.07 | 0.0494 | 0.0852 | 0.0763 | 0.0337 | 0.0645 | 0.061 | 0.111 | 0.0691 | 0.0566 | 0.0725 | 0.0661 | – | – | – |
| MGESLFKGPRDYNPISSSICHLTNESDGHTTSLYGIGFGPFIITNKHLFRRNNGTLVVQSLHGVFKVKDTTTLQQHLVDGRDMIIIRMPKDFPPFPQKLKFREPQREERICLVTTNFQTKSMSSMVSDTSCTFPSGDGIFWKHWIQTKDGQCGSPLVSTRDGFIVGIHSASNFTNTNNTFTSVPKNFMELLTNQEAQQWVSGWRLNADSVLWGGHKVFMVKPEEPFQPVKEATQL [Y179T] | 0.0373 | 0.0517 | 0.0925 | 0.0523 | – | 0.0664 | – | – | 0.0938 | – | – | 0.054 | 0.0604 | – | – | 0.0623 | 0.0595 | – | – |
| MGESLFKGPRDYNPISSSICHLTNESDGHTTSLYGIGFGPFIITNKHLFRRNNGTLVVQSLHGVFKVKDTTTLQQHLVDGRDMIIIRMPKDFPPFPQKLKFREPQREERINLVTTNFQTKSMSSMVSDTSCTFPSGDGIFWKHWIQTKDGQCGSPLVSTRDGFIVGIHSASNFTNTNNYFTSVPKNFMELLTNQEAQQWVSGWRLNADSVLWGGHKVFMVKPEEPFQPVKEATQL [C111N] | 0.164 | – | 0.0981 | – | 0.0567 | 0.0553 | – | 0.0974 | 0.0572 | – | 0.067 | 0.0914 | 0.0525 | – | 0.0711 | – | – | – | – |
| MGESLFKGPRDYNPISSSICHLTNESDGHTTSLYGIGFGPFIITNKHLFRRNNGTLVVQSLHGVFKVKDTTTLQQHLVDGRDMIIIRMPKDFPPFPQKLKFWEPQREERICLVTTNFQTKSMSSMVSDTSCTFPSGDGIFWKHWIQTKDGQCGSPLVSTRDGFIVGIHSASNFTNTNNYFTSVPKNFMELLTNQEAQQWVSGWRLNADSVLWGGHKVFMVKPEEPFQPVKEATQL [R102W] | 0.0772 | 0.0497 | – | 0.0528 | 0.037 | 0.0467 | 0.0447 | 0.0456 | 0.0584 | – | 0.048 | 0.0507 | 0.0364 | 0.0568 | 0.045 | – | 0.0534 | 0.0521 | – |
| MGESLFKGPRDYNPISSSICHLTNESDGHTTSLYGIGFGPFIITNKHLFRRNNGTLVVQSLHGVFKVKDTTTLQQHLVDGRDMIIIRMPKDFPPFPQKLKFREPQREERICLVTTNFQTKSMSSMVSDTSCTFPSGDGIFWKHWIQTKDGQCGSPLVSTRDGFIVGIHSASNFTNTNNYFTSVPKNFMELLTNQEMQQWVSGWRLNADSVLWGGHKVFMVKPEEPFQPVKEATQL [A196M] | 0.114 | 0.0893 | 0.0987 | 0.0748 | – | 0.0694 | 0.0651 | 0.0689 | – | – | 0.0577 | 0.115 | 0.0453 | 0.0661 | 0.0653 | – | 0.105 | 0.0346 | – |
| MGESLFKGPRDYNPISSSICHLTNESDGHTTSLYGIGFGPFIITNKHLFRRNNGTLVVQSLHGVFKVKDTTTLQQHLVDGRDMIIIRMPKDFPPFPQKLKFREPQREERICLVTTNFQTKSMSSKVSDTSCTFPSGDGIFWKHWIQTKDGQCGSPLVSTRDGFIVGIHSASNFTNTNNYFTSVPKNFMELLTNQEAQQWVSGWRLNADSVLWGGHKVFMVKPEEPFQPVKEATQL [M125K] | 0.128 | 0.081 | 0.111 | 0.09 | – | 0.0677 | 0.0438 | 0.0765 | – | – | 0.0631 | 0.107 | – | – | 0.0686 | 0.0731 | 0.0912 | 0.0774 | – |
| MGESLFKGPRDYNPISSSICHLTNESDGHTTSLYGIGFGPFIITNKHLFRRNNGTLVVQSLHGVFKVKDTTTLQQHLVDGRDMIIIRMPKDFPPFPQKLKFREPQREERICLVTTNFQTKSMSSMVSDTSCTFPSGDGIFWKHWIQTKDGQCGSPLVSTRDGFIVGIHSASNFTNTNNYFTSVPKNFMELLTNQEAQQWVSGWRLNEDSVLWGGHKVFMVKPEEPFQPVKEATQL [A207E] | 0.0943 | – | – | – | 0.0532 | – | 0.0618 | 0.0729 | 0.0634 | – | 0.0613 | 0.116 | 0.0718 | – | – | – | 0.0698 | – | – |
| MGESLFKGPRDYNPISSSICHLTNESDGHTTSLYGIGFGPFIITNKHLFRRNNGTLVVQSLHGVFKVKDTTTLQQHLVDGRDMIIIRMPKDFPPFPQKLKFREPQREERICLVTTNFQTKLMSSMVSDTSCTFPSGDGIFWKHWIQTKDGQCGSPLVSTRDGFIVGIHSASNFTNTNNYFTSVPKNFMELLTNQEAQQWVSGWRLNADSVLWGGHKVFMVKPEEPFQPVKEATQL [S121L] | 0.111 | 0.0684 | 0.124 | 0.0765 | 0.0616 | 0.0779 | 0.0702 | 0.0509 | – | – | 0.0674 | 0.105 | 0.0661 | 0.0552 | – | 0.0763 | 0.0955 | – | – |
| MGESLFKGPRDYNPISSSICHLTNESDGHTTSLYGIGFGPFIITNKHLFRRNNGTLVVQSLHGVFKVKDTTTLQQHLVDGRDMIIIRMPKDFPPFPQKLKFREPQREERICLVTTNFQTKSMSSMVSDTSCTFPSGDGIFWKHWIQTKDGQCGSPLVSTRDGFIVGIHSASNFTNTNNYFTSVPKNFMELLTNQEAQQWVSGWRLNADSVLWWGHKVFMVKPEEPFQPVKEATQL [G213W] | 0.0529 | – | 0.0624 | 0.0491 | 0.0576 | 0.041 | 0.0564 | 0.0605 | 0.0631 | 0.0655 | 0.0561 | 0.0574 | 0.0541 | 0.0542 | 0.0584 | 0.064 | 0.0555 | – | 0.0482 |
